Source: PubChem BioAssay AID588342 (National Center for Advancing Translational Sciences (NCATS), 2011)
The whole screen tested about 360,000 compounds, of which about 25,000 (6.9%) were called active. Inconclusive means that the source gave no clear call. Such entries were picked first, then a sample of the others. The call rests on the fitted dose curve; in most records, active means well fitted inhibition curve with a large enough effect; inconclusive means small, poorly fitted or top-dose-only effect; inactive means flat fitted curve, though single readings scatter. Potencies of inconclusive entries are doubtful fits and often do not repeat.

biological target: Luciferin 4-monooxygenase (Photinus pyralis) (UniProt P08659); assay: qHTS profiling assay for firefly luciferase inhibitor/activator using purifed enzyme and Km concentrations of substrates (counterscreen for miR-21 project); details: purified FLuc, luminescence inhibition; series mostly up to 57.5 µM; further: nearly all actives have a fitted effect of over 55% in size
UniProt P08659, sequence (P08659 whole entry, looked up): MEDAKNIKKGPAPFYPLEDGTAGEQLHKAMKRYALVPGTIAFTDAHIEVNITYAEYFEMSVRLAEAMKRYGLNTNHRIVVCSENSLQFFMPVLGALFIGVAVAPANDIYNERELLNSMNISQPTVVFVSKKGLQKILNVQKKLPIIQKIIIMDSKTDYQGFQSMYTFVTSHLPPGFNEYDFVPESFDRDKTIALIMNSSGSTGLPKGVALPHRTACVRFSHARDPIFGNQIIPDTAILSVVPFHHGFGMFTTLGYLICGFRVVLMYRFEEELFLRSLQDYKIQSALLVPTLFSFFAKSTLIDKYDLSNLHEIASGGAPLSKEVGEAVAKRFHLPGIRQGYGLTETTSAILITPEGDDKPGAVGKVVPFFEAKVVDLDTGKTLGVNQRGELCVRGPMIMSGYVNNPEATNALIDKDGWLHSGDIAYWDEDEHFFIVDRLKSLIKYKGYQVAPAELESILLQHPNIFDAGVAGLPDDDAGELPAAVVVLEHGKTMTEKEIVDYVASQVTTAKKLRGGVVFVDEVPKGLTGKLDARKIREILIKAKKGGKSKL
Procedure, shortened: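 Biochemical qHTS of compounds, final roughly 60 µM downward over six points, against 10 nM purified firefly luciferase using Km concentrations of substrates (10 uM D-luciferin, 10 uM ATP) in Tris acetate pH 7.5 buffer; luminescence output.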
Potency means the concentration at half of the fitted maximal effect; tags describe the fitted curve by direction and shape.

Structure (SMILES) | Potency
Cn1c(SCC(=O)c2ccc3c(c2)OCCO3)nnc1C1CC1 | inconclusive: 26.9 µM [inhibitor, partial curve, poor fit]
Cc1cccc(NC(=O)c2ccc3c(=O)n(CC4CCCO4)c(=S)[nH]c3c2)c1 (stereo not given) | inconclusive: 19 µM [inhibitor, partial curve, poor fit]
CC1=C(C(N)=O)C(c2ccccc2F)n2nc(-c3ccc(Cl)cc3)nc2N1 (stereo not given) | inconclusive: 37.9 µM [inhibitor, single point]
NNc1cc([N+](=O)[O-])cc2c1C(=O)N(Cc1ccccc1)S2=O (stereo not given) | inconclusive: 19 µM [inhibitor, partial curve, poor fit]
COc1ccc(NS(=O)(=O)c2ccc(Cl)c(C(=O)O)c2)cc1S(=O)(=O)N1CCCCC1 | inconclusive: 23.9 µM [inhibitor, partial curve, poor fit]
COc1cccc2cc(C(=O)NCc3ccc(C)cc3)c(=N)oc12 | active: 5.36 µM
CN1CCN(CCCNC(=O)c2ccc(/C=C3/Sc4ccccc4N(Cc4cccc(Cl)c4)C3=O)cc2)CC1 | inconclusive: 37.9 µM [inhibitor, single point]
COc1ccccc1CNc1ncnc2c1c(-c1ccccc1)cn2-c1ccc(Br)cc1 | inactive
O=C(N/N=C/c1cccnc1)c1cccc(N2CCCC2=O)c1 | inconclusive: 16.9 µM [inhibitor, partial curve]
CCOC(=O)c1oc2cc(OCC(=O)OC)ccc2c(=O)c1-c1ccc(OC)c(OC)c1 | inactive
CCOc1ccc(-c2nc(C(N)=O)c3c(n2)n(-c2ccc4c(c2)OCO4)c(=O)n3CC)cc1 | inactive
CCc1nnc(NC(=O)CSc2nc(-c3ccc(OC)cc3)ns2)s1 | active: 1.69 µM
O=C(Nc1ccc(Br)cn1)c1ccc(Cl)s1 | active: 4.26 µM
O=C(COC(=O)c1ccc(F)cc1F)Nc1cc(S(=O)(=O)N2CCOCC2)ccc1Cl | inactive
O=C(COc1ccc(Cl)cc1Cl)Nc1ccccc1NS(=O)(=O)c1cccs1 | inconclusive: 21.3 µM [inhibitor, single point]
COc1ccc(CN(C(=O)Cn2nnc(-c3ccc(C)o3)n2)C(C(=O)NCC2CCCO2)c2ccco2)cc1 (stereo not given) | active: 0.19 µM
CC(=O)Nc1cccc(C(=O)OCc2ccccc2)c1 | inconclusive: 9.53 µM [inhibitor, full curve, poor fit]
CSc1nsc(SCc2ccc(Cl)cc2)n1 | inconclusive: 37.9 µM [inhibitor, single point]
Cc1nc(S/C(=C/c2ccc(-c3ccc(C(=O)O)cc3)o2)C(=O)O)n[nH]1 | inconclusive: 37.9 µM [inhibitor, single point]
O=C(Nc1ccccc1F)c1cccc(C(=O)Nc2ccccc2F)c1 | inconclusive: 37.9 µM [inhibitor, single point]
Cc1ccc2ccc(S(=O)(=O)NCc3ccccn3)cc2c1 | inconclusive: 26.9 µM [inhibitor, single point]
COc1cccc(NC(=O)C(C)SCc2ccccc2)c1 (stereo not given) | inconclusive: 37.9 µM [inhibitor, single point]
O=C(Nc1nc(-c2ccc(Cl)cc2)cs1)C1CCCO1 (stereo not given) | active: 15.1 µM
O=C(CN1C(=O)/C(=C\c2cccs2)SC1=S)Nc1cccc(C(=O)O)c1 | inconclusive: 23.9 µM [inhibitor, single point]

Structure (SMILES) | Potency
COc1cccc(C(=O)Nc2ccc3nc4n(c(=O)c3c2)CCCCC4)c1 | active: 16.9 µM
Cc1ccc(O)c(Nc2nc3ccccc3c3nncn23)c1 | inactive
Cc1ccc(CNC(=O)Cn2cnc(S(=O)(=O)N3CCC(C)CC3)c2)o1 | inactive
CCc1cccc(NC(=O)CCc2c(C)nn(-c3ccc(N4CCCCC4)nn3)c2C)c1 | active: 10.7 µM
CCN(c1ccc(NC(=O)CN2C(=O)NC3(CCOc4ccccc43)C2=O)cc1)C(C)C (stereo not given) | active: 16.9 µM
CC(=O)N1CCN(c2ccccc2NC(=O)c2ccc(Br)o2)CC1 | inconclusive: 26.9 µM [inhibitor, single point]
CC(=O)c1cccc(NC(=O)C(C)OC(=O)Cc2c[nH]c3ccccc23)c1 (stereo not given) | inactive
NS(=O)(=O)c1ccc(NC(=O)CN2CCc3ccccc3C2)cc1 | inactive
Cc1ccc(N2C(=O)c3ccccc3NC2(C(=O)O)c2ccccc2)cc1Cl (stereo not given) | inconclusive: 37.9 µM [inhibitor, partial curve, poor fit]
O=[N+]([O-])c1cccc(/C=N/Nc2nc(NCc3ccccc3)nc(N3CCOCC3)n2)c1 | inactive
COc1ccc(C(=O)N/N=C(/C)c2cccc(NC(=O)c3ccncc3)c2)cc1OC | inconclusive: 23.9 µM [inhibitor, single point]
Cc1c(CN(C)C(=O)c2cc(-c3ccccc3)nc3ccc(Br)cc23)cnn1C | inconclusive: 16.9 µM [inhibitor, partial curve]
O=C(CCN1CCCCC1=O)NC1CCCN(Cc2ccc(Cl)cc2)C1 (stereo not given) | inconclusive: 23.9 µM [inhibitor, single point]
O=C(c1cc(-c2cccc(Cl)c2)on1)N1CCc2ccccc2C1 | inactive
Cc1oc2ccc(NS(=O)(=O)c3ccc(F)cc3)cc2c1C(=O)O | inconclusive: 8.49 µM [inhibitor, partial curve]
Cc1ccccc1CNC(=O)CCn1nc(C)c2c(C)n(-c3ccccc3)nc2c1=O | inactive
CCOC(=O)C1CCN(c2ncnc3c2cnn3-c2ccc(OC)cc2)CC1 | inconclusive: 30.1 µM [inhibitor, single point]
COc1ccc(N=Cc2ccc(CNS(=O)(=O)c3ccc(Cl)cc3)o2)cc1 | inconclusive: 30.1 µM [inhibitor, single point]
Cc1ccccc1-c1noc(-c2ccc(N3CCC(C)CC3)c([N+](=O)[O-])c2)n1 | inconclusive: 21.3 µM [inhibitor, partial curve]
Cn1nccc1C(=O)Nc1sc2c(c1C#N)CCCC2 | inconclusive: 26.9 µM [inhibitor, single point]
O=C(Nc1ccccc1)C1=C[C@@H](c2ccc(Br)cc2)C[C@@H](OCCCCO)O1 | inconclusive: 19 µM [inhibitor, partial curve, poor fit]
CN(c1ccccc1)S(=O)(=O)c1ccc(C(=O)Nc2nccs2)cc1 | inconclusive: 26.9 µM [inhibitor, partial curve, poor fit]
CCCc1cc2c(=O)c(-c3cscn3)c(C(=O)OCC)oc2cc1O | inconclusive: 26.9 µM [inhibitor, partial curve, poor fit]
Cc1csc2nc(-c3cccc(NS(C)(=O)=O)c3)cn12 | active: 26.9 µM

Structure (SMILES) | Potency
Cc1ccc(S(=O)(=O)NC(=O)COc2ccc([N+](=O)[O-])cc2)cc1 | inactive
O=C(CCCSc1nc2ccccc2s1)Nc1nccs1 | inconclusive: 26.9 µM [inhibitor, single point]
Cc1cc(C(=O)CN2C(=O)c3ccccc3S2(=O)=O)c(C)n1-c1ccccc1 | active: 2.13 µM
Cc1ccc(-c2nc(C)c(CCNC(=O)C(=O)Nc3cc(C)ccc3C)s2)cc1 | inactive
CCN(CC(=O)Nc1ccc(NC(C)=O)cc1)C(=O)c1cccc2ccccc12 | inconclusive: 23.9 µM [inhibitor, single point]
Cc1csc2nc(-c3ccc(NS(=O)(=O)c4cccc(F)c4)cc3)cn12 | inconclusive: 23.9 µM [inhibitor, partial curve]
Cn1c(SCC(=O)NC2CCCCC2)nnc1-c1cc2cc(Cl)ccc2o1 | inconclusive: 8.49 µM [inhibitor, partial curve]
CCOC(=O)C1=NOC(CN(c2ccccc2)S(=O)(=O)c2ccc(Cl)cc2)C1 (stereo not given) | inactive
Nc1nnn(CC(=O)N/N=C/c2ccc(O)cc2)n1 | inactive
Cc1nc(SCC(=O)Nc2ccc(OCc3ccccc3)cc2)n[nH]1 | active: 12 µM
CCn1cc(C(=O)NCc2ccc3c(c2)OCO3)c(=O)c2cc(S(=O)(=O)N(C)C)ccc21 | inactive
O=C(COc1ccc(Br)cc1Cl)Nn1cnnc1 | inconclusive: 19 µM [inhibitor, partial curve, poor fit]
COc1ccc2c(c1)[nH]c1c(=O)n(Cc3ccncc3)cnc12 | inconclusive: 30.1 µM [inhibitor, single point]
O=C(Nc1nc2ccccc2[nH]1)c1ccccc1OC(F)F | active: 0.953 µM
Cc1cc(NS(=O)(=O)c2ccc(NC(=O)/C=C/c3c(F)cccc3Cl)cc2)nc(C)n1 | inconclusive: 26.9 µM [inhibitor, partial curve, poor fit]
OCCCN=c1cc(-c2ccccc2)oc2ccc(Cl)cc12 | inconclusive: 21.3 µM [inhibitor, partial curve, poor fit]
COc1ccc(S(=O)(=O)Nc2cccc(-c3ccc(N4CCCCCC4)nn3)c2)cc1F | active: 5.36 µM
Brc1ccc(-c2cn3c(n2)SCC3)cc1 | active: 5.36 µM
C/C(=N\Nc1ccc(C(F)(F)F)cn1)c1ccncc1 | inconclusive: 37.9 µM [inhibitor, single point]
COc1cc(NC(=O)c2cc(C)on2)cc(C(=O)Nc2cccc(C(F)(F)F)c2)c1 | inconclusive: 23.9 µM [inhibitor, single point]
COc1cccc(-c2cn3c(n2)sc2cc(C(=O)NCc4ccccc4F)ccc23)c1 | inconclusive: 12 µM [inhibitor, partial curve]
O=C(O)c1cc(N/N=C/c2ccc3c(c2)OCCO3)ccc1Cl | active: 1.07 µM
